Experimental data published in the supplement of paper PMC7125110.
± gives the standard error. Variants at the background level are over-represented here.

B1: glmS ribozyme (parent)
chain: AUAAAAGCGCCAGAACUACAGAAAUGUAGUUGACGAGGAGGAGGUUUAUCGAAUUUUCGGCGGAUGCCUCCAAA

Experiments:
Details in all cases: with glucosamine-6-phosphate
glucosamine-6-phosphate [1] = variants of: B1; test: self-cleavage kobs at 40 uM GlcN6P; higher = faster cleavage; RNA array
Procedure, shortened: (§1)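 Glucosamine-6-phosphate in HEPES/KCl/Mg(OAc)2 buffer, at 40 μM to 10 mM, was flowed over barcoded ribozyme variants transcribed in situ by E. coli RNA polymerase on sequenced MiSeq chips. Tracking was through a hybridised Cy3 probe at 37 °C. kobs, kcat and KM came from exponential decay fits and weighted Michaelis–Menten fits of normalised per-tile medians.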

glucosamine-6-phosphate [2] = variants of: B1; test: self-cleavage kobs at 10000 uM GlcN6P; higher = faster cleavage; RNA array
Procedure, shortened: as §1

glucosamine-6-phosphate [3] = variants of: B1; test: self-cleavage kobs at 2500 uM GlcN6P; higher = faster cleavage; RNA array
Procedure, shortened: as §1

glucosamine-6-phosphate [4] = variants of: B1; test: self-cleavage kobs at 160 uM GlcN6P; higher = faster cleavage; RNA array
Procedure, shortened: as §1

glucosamine-6-phosphate [5] = variants of: B1; test: self-cleavage kobs at 640 uM GlcN6P; higher = faster cleavage; RNA array
Procedure, shortened: as §1

| Variant | self-cleavage kobs at 40 uM GlcN6P (glucosamine-6-phosphate [1]) | self-cleavage kobs at 10000 uM GlcN6P (glucosamine-6-phosphate [2]) | self-cleavage kobs at 2500 uM GlcN6P (glucosamine-6-phosphate [3]) | self-cleavage kobs at 160 uM GlcN6P (glucosamine-6-phosphate [4]) | self-cleavage kobs at 640 uM GlcN6P (glucosamine-6-phosphate [5]) |
| --- | --- | --- | --- | --- | --- |
| C10G U30C U69C | < 1e-05 s⁻¹ | < 1e-05 s⁻¹ |  |  |  |
| C10G U31G G35U G40U | < 1e-05 s⁻¹ |  |  |  |  |
| C10G U47A G60U C61U | < 1e-05 s⁻¹ |  |  |  |  |
| C10G U49A A52G A64C | < 1e-05 s⁻¹ | < 1e-05 s⁻¹ | < 1e-05 s⁻¹ |  |  |
| C10G U49C | < 1e-05 s⁻¹ | < 1e-05 s⁻¹ | < 1e-05 s⁻¹ | < 1e-05 s⁻¹ |  |
| C10G U65G | < 1e-05 s⁻¹ | < 1e-05 s⁻¹ | < 1e-05 s⁻¹ | < 1e-05 s⁻¹ | < 1e-05 s⁻¹ |
| C10U A12G G60A C67G C68A | < 1e-05 s⁻¹ | < 1e-05 s⁻¹ |  |  |  |
| C10U A12U A33U A53G C58U U69G | 9.07e-05 ± 2.5e-05 s⁻¹ | 6.22e-05 ± 1.8e-05 s⁻¹ | 0.000132 ± 4.1e-05 s⁻¹ | 0.000159 ± 3.3e-05 s⁻¹ | 0.000216 ± 5.1e-05 s⁻¹ |
| C10U A14G A52U G60U | < 1e-05 s⁻¹ | < 1e-05 s⁻¹ | < 1e-05 s⁻¹ |  |  |
| C10U A15C G43U C50U U57G G59A | < 1e-05 s⁻¹ |  |  |  |  |
| C10U A15G G40U | < 1e-05 s⁻¹ | < 1e-05 s⁻¹ |  |  |  |
| C10U A15U G44C | < 1e-05 s⁻¹ |  |  |  | < 1e-05 s⁻¹ |
| C10U A33C C34G G44U C68G | < 1e-05 s⁻¹ | < 1e-05 s⁻¹ |  |  |  |
| C10U A33C U47G G51U C58G A64U C70A | 7.66e-05 ± 2.4e-05 s⁻¹ | 0.000101 ± 2.1e-05 s⁻¹ |  |  |  |
| C10U A33G C70U | < 1e-05 s⁻¹ | < 1e-05 s⁻¹ |  |  |  |
| C10U A39C C70G | < 1e-05 s⁻¹ |  |  |  |  |
| C10U A42G | < 1e-05 s⁻¹ |  |  |  |  |
| C10U A48G | < 1e-05 s⁻¹ | < 1e-05 s⁻¹ | < 1e-05 s⁻¹ | < 1e-05 s⁻¹ |  |
| C10U A52G G66U | < 1e-05 s⁻¹ | < 1e-05 s⁻¹ |  |  |  |

| Variant | self-cleavage kobs at 40 uM GlcN6P (glucosamine-6-phosphate [1]) | self-cleavage kobs at 10000 uM GlcN6P (glucosamine-6-phosphate [2]) | self-cleavage kobs at 2500 uM GlcN6P (glucosamine-6-phosphate [3]) | self-cleavage kobs at 160 uM GlcN6P (glucosamine-6-phosphate [4]) | self-cleavage kobs at 640 uM GlcN6P (glucosamine-6-phosphate [5]) |
| --- | --- | --- | --- | --- | --- |
| C10U A52U | < 1e-05 s⁻¹ |  |  |  |  |
| C10U A52U A53U C68U | < 1e-05 s⁻¹ | < 1e-05 s⁻¹ |  |  |  |
| C10U C11A G43A U45G U46G | < 1e-05 s⁻¹ | < 1e-05 s⁻¹ |  |  | < 1e-05 s⁻¹ |
| C10U C11U U49C | < 1e-05 s⁻¹ |  |  |  | < 1e-05 s⁻¹ |
| C10U C16G | < 1e-05 s⁻¹ |  |  |  | < 1e-05 s⁻¹ |
| C10U C16U G38A A39G | < 1e-05 s⁻¹ |  |  |  |  |
| C10U C34U | < 1e-05 s⁻¹ | < 1e-05 s⁻¹ | < 1e-05 s⁻¹ | < 1e-05 s⁻¹ |  |
| C10U C50A U55A | < 1e-05 s⁻¹ | < 1e-05 s⁻¹ |  |  |  |
| C10U C50G | 6.14e-05 ± 1e-05 s⁻¹ | 0.000116 ± 3e-05 s⁻¹ | 0.00051 ± 0.0002 s⁻¹ | 9.85e-05 ± 1.3e-05 s⁻¹ | 0.000136 ± 1.7e-05 s⁻¹ |
| C10U C50G A52U | < 1e-05 s⁻¹ |  |  | < 1e-05 s⁻¹ | < 1e-05 s⁻¹ |
| C10U C50U C68G | < 1e-05 s⁻¹ |  |  |  |  |
| C10U C58A | < 1e-05 s⁻¹ | < 1e-05 s⁻¹ |  |  |  |
| C10U C58G | < 1e-05 s⁻¹ |  |  |  |  |
| C10U G13A A39U G60U | < 1e-05 s⁻¹ |  |  |  |  |
| C10U G13C G40A | < 1e-05 s⁻¹ |  |  | < 1e-05 s⁻¹ |  |
| C10U G13C G66U | < 1e-05 s⁻¹ | < 1e-05 s⁻¹ |  |  | < 1e-05 s⁻¹ |
| C10U G29C G37A A53C | < 1e-05 s⁻¹ |  |  |  |  |
| C10U G29U | < 1e-05 s⁻¹ | < 1e-05 s⁻¹ | < 1e-05 s⁻¹ | < 1e-05 s⁻¹ |  |
| C10U G35C A42U | < 1e-05 s⁻¹ |  |  |  | < 1e-05 s⁻¹ |

| Variant | self-cleavage kobs at 40 uM GlcN6P (glucosamine-6-phosphate [1]) | self-cleavage kobs at 10000 uM GlcN6P (glucosamine-6-phosphate [2]) | self-cleavage kobs at 2500 uM GlcN6P (glucosamine-6-phosphate [3]) | self-cleavage kobs at 160 uM GlcN6P (glucosamine-6-phosphate [4]) | self-cleavage kobs at 640 uM GlcN6P (glucosamine-6-phosphate [5]) |
| --- | --- | --- | --- | --- | --- |
| C10U G35U A39U A48G | < 1e-05 s⁻¹ | < 1e-05 s⁻¹ | < 1e-05 s⁻¹ | < 1e-05 s⁻¹ | < 1e-05 s⁻¹ |
| C10U G37C G44U U65C | < 1e-05 s⁻¹ |  | < 1e-05 s⁻¹ | < 1e-05 s⁻¹ | < 1e-05 s⁻¹ |
| C10U G38A C71U | < 1e-05 s⁻¹ | < 1e-05 s⁻¹ |  |  |  |
| C10U G38A U47A | < 1e-05 s⁻¹ |  | < 1e-05 s⁻¹ |  | < 1e-05 s⁻¹ |
| C10U G40A C67A | < 1e-05 s⁻¹ | < 1e-05 s⁻¹ |  |  |  |
| C10U G41A U54A C68A | < 1e-05 s⁻¹ | < 1e-05 s⁻¹ |  |  |  |
| C10U G41U A53U | < 1e-05 s⁻¹ | < 1e-05 s⁻¹ |  | < 1e-05 s⁻¹ |  |
| C10U G43C C50U C70U | < 1e-05 s⁻¹ |  |  |  |  |
| C10U G44U C50A | < 1e-05 s⁻¹ |  |  |  |  |
| C10U G51A | < 1e-05 s⁻¹ | < 1e-05 s⁻¹ |  |  |  |
| C10U G60U | < 1e-05 s⁻¹ | < 1e-05 s⁻¹ |  | < 1e-05 s⁻¹ | < 1e-05 s⁻¹ |
| C10U G62A | < 1e-05 s⁻¹ | < 1e-05 s⁻¹ |  |  | < 1e-05 s⁻¹ |
| C10U U30C G59A G60A C70U | < 1e-05 s⁻¹ |  |  |  |  |
| C10U U31A C34A A42G G51A | < 1e-05 s⁻¹ |  |  |  |  |
| C10U U31C G38U G51U U55G | < 1e-05 s⁻¹ |  |  |  |  |
| C10U U31G A53C U54G U55A | < 1e-05 s⁻¹ |  |  |  |  |
| C10U U31G A64G | < 1e-05 s⁻¹ |  |  |  |  |
| C10U U45A C68G | < 1e-05 s⁻¹ | < 1e-05 s⁻¹ |  |  |  |
